# Reference: the supplement of paper PMC12217912
# The other results are listed elsewhere or left out. The full chains were built here from the parent and the listed change. Inactive controls read about 0.05.
# B1: TEV protease; numbered along this chain (parent)
# chain: MGESLFKGPRDYNPISSSICHLTNESDGHTTSLYGIGFGPFIITNKHLFRRNNGTLVVQSLHGVFKVKDTTTLQQHLVDGRDMIIIRMPKDFPPFPQKLKFREPQREERICLVTTNFQTKSMSSMVSDTSCTFPSGDGIFWKHWIQTKDGQCGSPLVSTRDGFIVGIHSASNFTNTNNYFTSVPKNFMELLTNQEAQQWVSGWRLNADSVLWGGHKVFMVKPEEPFQPVKEATQL
# Variants of: B1
# Assay: raw area under fraction-flipped curve 0-4 h after induction (AUC4h, not background-subtracted), DNA-recorder readout of cleavage of the substrate (dimensionless); higher = more cleavage of the substrate by the protease variant
# Details: temperature: 34 °C; time window: 0-4 h after rhamnose induction
# Description: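 In vivo DNA recorder in E. coli TOP10(DE3) ΔrhaA at 34 °C. Each TEVp single-site mutant (parent TEVp 0) is paired with a single-site variant of the 7-mer TEVs (canonical ENLYFQ|S). The substrate sits between flexible linkers in a Bxb1-sfGFP-TEVs-SsrA fusion, so cleavage stabilises Bxb1 and speeds flipping of a recombination array, read by NGS. The value is the raw area under the fraction-flipped curve over 0-4 h after rhamnose induction (AUC4h), with ≥20 reads per time point. It is not background-subtracted; inactive controls average about 0.047.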
# 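Further: Bxb1 expression induced with 0.2% (w/v) L-rhamnose at OD600 near 0.5, cultures sampled hourly, flipped fraction per protease–substrate barcode pair counted by paired-end Illumina sequencing.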
variant,measurement,value
I85S,area with substrate DNLYFQS,0.0537
same,area with substrate FNLYFQS,0.0589
same,area with substrate GNLYFQS,0.0592
same,area with substrate HNLYFQS,0.0627
same,area with substrate KNLYFQS,0.0426
same,area with substrate LNLYFQS,0.0472
same,area with substrate MNLYFQS,0.0507
same,area with substrate SNLYFQS,0.0696
same,area with substrate WNLYFQS,0.0594
same,area with substrate YNLYFQS,0.0609
P134M,area with substrate DNLYFQS,0.0674
same,area with substrate HNLYFQS,0.0752
same,area with substrate INLYFQS,0.056
same,area with substrate KNLYFQS,0.0782
same,area with substrate LNLYFQS,0.0584
same,area with substrate MNLYFQS,0.0532
same,area with substrate QNLYFQS,0.0683
P134A,area with substrate DNLYFQS,0.0844
same,area with substrate GNLYFQS,0.053
same,area with substrate INLYFQS,0.0554
same,area with substrate MNLYFQS,0.0619
same,area with substrate NNLYFQS,0.0667
same,area with substrate SNLYFQS,0.0639
C131A,area with substrate DNLYFQS,0.105
same,area with substrate GNLYFQS,0.0604
same,area with substrate LNLYFQS,0.0624
same,area with substrate NNLYFQS,0.06
C131L,area with substrate DNLYFQS,0.0775
same,area with substrate YNLYFQS,0.0597
R109S,area with substrate DNLYFQS,0.0656
same,area with substrate GNLYFQS,0.0528
same,area with substrate HNLYFQS,0.0582
same,area with substrate INLYFQS,0.066
same,area with substrate KNLYFQS,0.0447
same,area with substrate LNLYFQS,0.0605
same,area with substrate MNLYFQS,0.0587
same,area with substrate PNLYFQS,0.0593
same,area with substrate RNLYFQS,0.0844
same,area with substrate SNLYFQS,0.063
same,area with substrate TNLYFQS,0.0746
same,area with substrate WNLYFQS,0.0569
same,area with substrate YNLYFQS,0.0627
R109N,area with substrate DNLYFQS,0.063
same,area with substrate FNLYFQS,0.062
same,area with substrate GNLYFQS,0.0765
same,area with substrate HNLYFQS,0.071
same,area with substrate LNLYFQS,0.0547
same,area with substrate RNLYFQS,0.0533
same,area with substrate SNLYFQS,0.0677
same,area with substrate VNLYFQS,0.0636
R109A,area with substrate DNLYFQS,0.0819
same,area with substrate HNLYFQS,0.0664
same,area with substrate INLYFQS,0.0617
same,area with substrate KNLYFQS,0.0693
same,area with substrate MNLYFQS,0.0799
same,area with substrate NNLYFQS,0.0642
same,area with substrate PNLYFQS,0.0348
same,area with substrate SNLYFQS,0.0727
same,area with substrate VNLYFQS,0.0697
same,area with substrate WNLYFQS,0.0898
same,area with substrate YNLYFQS,0.0627
K90E,area with substrate DNLYFQS,0.11
same,area with substrate HNLYFQS,0.0525
same,area with substrate KNLYFQS,0.0678
same,area with substrate LNLYFQS,0.0634
same,area with substrate WNLYFQS,0.0585
K90D,area with substrate DNLYFQS,0.0726
same,area with substrate HNLYFQS,0.0734
same,area with substrate INLYFQS,0.0582
same,area with substrate KNLYFQS,0.0931
same,area with substrate LNLYFQS,0.0687
same,area with substrate VNLYFQS,0.0535
same,area with substrate WNLYFQS,0.0773
same,area with substrate YNLYFQS,0.0656
F95E,area with substrate DNLYFQS,0.0434
same,area with substrate FNLYFQS,0.0587
same,area with substrate GNLYFQS,0.0416
same,area with substrate HNLYFQS,0.0533
same,area with substrate KNLYFQS,0.0559
same,area with substrate LNLYFQS,0.0584
same,area with substrate MNLYFQS,0.0402
same,area with substrate NNLYFQS,0.0499
same,area with substrate PNLYFQS,0.0381
same,area with substrate QNLYFQS,0.0569
same,area with substrate SNLYFQS,0.0297
same,area with substrate TNLYFQS,0.0608
same,area with substrate VNLYFQS,0.0568
same,area with substrate WNLYFQS,0.0469
T129R,area with substrate DNLYFQS,0.0907
same,area with substrate FNLYFQS,0.0645
same,area with substrate LNLYFQS,0.0633
same,area with substrate MNLYFQS,0.0811
same,area with substrate PNLYFQS,0.0788
same,area with substrate TNLYFQS,0.066
same,area with substrate WNLYFQS,0.0645
T129A,area with substrate DNLYFQS,0.0728
same,area with substrate HNLYFQS,0.0759
same,area with substrate INLYFQS,0.0476
same,area with substrate KNLYFQS,0.0859
same,area with substrate LNLYFQS,0.054
same,area with substrate PNLYFQS,0.0689
same,area with substrate QNLYFQS,0.0717
same,area with substrate RNLYFQS,0.0809
same,area with substrate TNLYFQS,0.0668
same,area with substrate VNLYFQS,0.066
same,area with substrate WNLYFQS,0.0588
Q97M,area with substrate DNLYFQS,0.0889
same,area with substrate FNLYFQS,0.0614
same,area with substrate HNLYFQS,0.058
same,area with substrate INLYFQS,0.0704
same,area with substrate KNLYFQS,0.0688
same,area with substrate MNLYFQS,0.0515
same,area with substrate NNLYFQS,0.0701
same,area with substrate TNLYFQS,0.0704
same,area with substrate VNLYFQS,0.0601
same,area with substrate WNLYFQS,0.0581
same,area with substrate YNLYFQS,0.0218
Q97V,area with substrate DNLYFQS,0.0505
same,area with substrate TNLYFQS,0.0557
G138E,area with substrate DNLYFQS,0.0655
same,area with substrate HNLYFQS,0.0559
same,area with substrate INLYFQS,0.0643
same,area with substrate KNLYFQS,0.0617
same,area with substrate LNLYFQS,0.0564
same,area with substrate WNLYFQS,0.0611
F101A,area with substrate DNLYFQS,0.0666
same,area with substrate FNLYFQS,0.0567
same,area with substrate INLYFQS,0.0468
same,area with substrate PNLYFQS,0.0651
same,area with substrate WNLYFQS,0.0462
F101P,area with substrate DNLYFQS,0.0502
same,area with substrate FNLYFQS,0.0531
same,area with substrate GNLYFQS,0.057
same,area with substrate HNLYFQS,0.0368
same,area with substrate KNLYFQS,0.0399
same,area with substrate MNLYFQS,0.0416
same,area with substrate PNLYFQS,0.0536
same,area with substrate VNLYFQS,0.0387
same,area with substrate WNLYFQS,0.049
same,area with substrate YNLYFQS,0.0512
F101M,area with substrate DNLYFQS,0.083
same,area with substrate FNLYFQS,0.0612
same,area with substrate HNLYFQS,0.0624
same,area with substrate KNLYFQS,0.0657
same,area with substrate MNLYFQS,0.0585
same,area with substrate PNLYFQS,0.0594
same,area with substrate QNLYFQS,0.0683
same,area with substrate RNLYFQS,0.0701
same,area with substrate SNLYFQS,0.0534
same,area with substrate TNLYFQS,0.0632
same,area with substrate WNLYFQS,0.0517
same,area with substrate YNLYFQS,0.0572
F101G,area with substrate DNLYFQS,0.0565
same,area with substrate FNLYFQS,0.0502
same,area with substrate INLYFQS,0.0508
same,area with substrate MNLYFQS,0.0472
same,area with substrate SNLYFQS,0.0388
same,area with substrate WNLYFQS,0.0539
